The labels stand for the following.
B1: LINE1-mini (parent)
chain: GGCAGAGCUCAACACAGCGUGGCAAAGUGGCUGUGGCUAGACUGCC

The source gives no read counts; variants with many changes may rest on few reads.

The data set covers variants of B1. The data set is described as follows: self-cleavage, relative activity (ratio to wild type); higher = more cleavage; in vitro, sequencing; the parent is a self-cleaving ribozyme.
For G2U G5U C10A C23A, the self-cleavage was determined as 0.01.

G21A G29C U32G: the self-cleavage stood at 1.18.

Take A24U A25U C31G C42G: the self-cleavage stood at 0.09.

In the case of U9G G27C C31A G36A G44A, the self-cleavage was determined as 0.05.

As to U9C G21C G22C, the self-cleavage was determined as 0.01.

G19U A25G G30A C46A: the self-cleavage came to 0.86.

Turning to C3G C15G U28G, the self-cleavage stood at 0.01.

G1U C13G G17A G29U: the self-cleavage was 0.01.

Turning to A6U G19A U20A G27C A39U, the self-cleavage was 0.06.

For A14C U20C U28G U43A, the self-cleavage came out at 0.

For A24C G30A C42A, the self-cleavage was determined as 0.16.

On to G5C A11G U43C C45U, for which the self-cleavage is 0.02.

On to G1C C13G G22C, for which the self-cleavage was 0.03.

With C3G A11G C15A, the self-cleavage was 0.06.

Turning to C10A C15U A24G A26G G33C G35C, the self-cleavage was found to be 0.02.

With C3G A26U G33A U38A, the self-cleavage was 0.15.

On to U32A G44C C46U, for which the self-cleavage was 0.06.

Take A4G A26G C46G: the self-cleavage turned out to be 0.14.

For C13A A39G U43C C45G, the self-cleavage was 0.08.

Turning to G21C G27A U28A, the self-cleavage is 0.68.

Consider U20G G22U G44U, for which the self-cleavage was 0.14.

Turning to G7A U9G A14G C37U G40U, the self-cleavage is 0.11.

Consider G5C U32C C37U, for which the self-cleavage was determined as 0.01.

Turning to A6G U28C G36A C45G, the self-cleavage stood at 0.26.

As to U9G C10G G22U G27U A39G, the self-cleavage came out at 0.01.

C8G C15A G19C: the self-cleavage came to 0.03.

On to C18U G29A U32C, for which the self-cleavage was found to be 0.26.

With G1A C23A G30C U43A, the self-cleavage amounted to 0.08.

U9C U28C C31A: the self-cleavage came out at 0.01.

Turning to C8A A12G A16G, the self-cleavage was determined as 0.04.

Regarding G7U G22A U34C A39G, the self-cleavage stood at 0.03.

Turning to C13A G19A G21A G29C, the self-cleavage is 0.06.

Regarding C3G A11G A25U G30C A39G, the self-cleavage is 0.01.

For the variant G2A A6U C8U, the self-cleavage was found to be 0.03.

For C3U G7A C31U, the self-cleavage came out at 0.33.

Turning to C10A G22U C31A A41G, the self-cleavage is 0.03.

As for C10G G21A C23A G30C G36C C37A, the self-cleavage worked out at 0.01.

For G5C C23A C31U A41C U43A, the self-cleavage came to 0.14.

Take U9G G21U C31U: the self-cleavage amounted to 0.02.

As for G5A C10A G17A A26U U32C C45A, the self-cleavage amounted to 0.04.

On to G21A C23G G36U, for which the self-cleavage came to 0.05.

Regarding G7U U32C C37U, the self-cleavage came out at 0.03.

In the case of G7A G21C U43G C45U, the self-cleavage worked out at 0.06.

G17C G21U U38C: the self-cleavage was found to be 0.2.

Turning to G7A C8A A11U C15A G21U G35A G40A C42A, the self-cleavage was found to be 0.02.

In the case of C13G G19C G30U G36U, the self-cleavage worked out at 0.16.

Turning to G2A U9A A16C G22A G36A, the self-cleavage stood at 0.17.

Take G27C C37G G40A C46U: the self-cleavage was 0.05.

For C3A A4U U9G C15U C42U C46U, the self-cleavage stood at 0.07.

For U9G C15U U34A G35U C42U, the self-cleavage stood at 0.02.

For the variant G2C C15A A26U, the self-cleavage is 0.06.

C3G G27A C31A G35C: the self-cleavage was 0.19.

With G2C A16U A24U, the self-cleavage amounted to 0.03.

With C10U G17A G22C C23G G44C, the self-cleavage is 0.02.

Consider C13A G30U G35U A39G, for which the self-cleavage was 0.01.

For C10G C42U C45U, the self-cleavage was determined as 0.02.

Take G1A C13U G21A U43C: the self-cleavage stood at 0.06.

With A4C G19C C37A C42A, the self-cleavage worked out at 0.02.

Regarding G22C A24C C45A, the self-cleavage amounted to 0.11.

In the case of C3U G33U A41G, the self-cleavage turned out to be 0.12.

For the variant A4C C23A A26G G36U C37A, the self-cleavage worked out at 0.56.

As for G29A C37G U38G, the self-cleavage was found to be 0.01.

On to G2U C8U C10U C18G C45U, for which the self-cleavage was 0.01.

Consider C15U G36U C46U, for which the self-cleavage amounted to 0.05.

For A24C G27C A41U, the self-cleavage came out at 0.09.

For the variant G2A G21C C23G A25C C46G, the self-cleavage was 0.61.

Take G2A C3G A12G A25U C37A: the self-cleavage stood at 0.65.

In the case of G1U G7C A12C, the self-cleavage worked out at 0.01.

For the variant G21A G27U G44U, the self-cleavage was 0.11.

Consider A11U C15A U20G G40C, for which the self-cleavage was 0.

Turning to A4U G7A G19C, the self-cleavage worked out at 0.22.

Consider A11U G19A A25U A39U, for which the self-cleavage was determined as 0.03.

As to A11G G27C G33A, the self-cleavage was found to be 0.02.

Turning to G2U A16G U28A A41G, the self-cleavage was 0.02.

Regarding C23U G27A C42U C46G, the self-cleavage was determined as 0.09.

With C3A U9C A11C G19U U20G, the self-cleavage stood at 0.

With C23A U32C C37U, the self-cleavage was 0.07.

For A6G G30C U43C, the self-cleavage stood at 0.

On to A4U A11U A12C C15U G29C U38C A39G, for which the self-cleavage amounted to 0.01.

Regarding G19U A26U U32G, the self-cleavage came out at 0.06.

On to G1U C15A G17A U20A C23A G35A, for which the self-cleavage amounted to 0.07.

For the variant A4C G17A G33A, the self-cleavage stood at 0.06.

As for C3U U28A C37A G40U, the self-cleavage amounted to 0.73.

C10U G22A G27C C46U: the self-cleavage amounted to 0.31.

Regarding C13A C15A G29C G36A, the self-cleavage came to 0.05.

With C23G U43G G44U, the self-cleavage came out at 1.42.

As to A24U G30U G33U G35U C37A A39G C46A, the self-cleavage was 0.28.

As to C8U U9A G17C A39C, the self-cleavage stood at 0.29.

A6C U9C A12G: the self-cleavage is 0.04.

Turning to G7U G17C G30A U38G, the self-cleavage is 0.04.

For the variant A6C A12G U20G A26U U38G, the self-cleavage was determined as 0.01.

Regarding C8A G35A C42U, the self-cleavage turned out to be 0.08.

For the variant A11C U34C U43C, the self-cleavage amounted to 0.03.

As to G2A C10A A41C U43A, the self-cleavage was found to be 0.03.

For G2A A6C C10A C23A A25C G30A, the self-cleavage came out at 0.01.

As to G7U C8U G19A U43A, the self-cleavage worked out at 0.07.

On to C3U U9C C31G G35A, for which the self-cleavage is 0.02.

Turning to A6G A11G A16G G22A A41U, the self-cleavage came out at 0.

With G5U U9G C10A C45G, the self-cleavage stood at 0.02.

For the variant A11G A14C A16U G33A G35U, the self-cleavage was found to be 0.

For A6U C10U G19U G22U C23G U34A, the self-cleavage turned out to be 0.07.

Regarding G19C C23A C31U G35U, the self-cleavage was 0.05.

Turning to G21A C23U C37G C45A, the self-cleavage was determined as 0.03.

For C15G A16U G44A, the self-cleavage worked out at 0.03.

Take G21U C23A G40C: the self-cleavage is 0.02.

For G2U A12G U34A G44U, the self-cleavage came out at 0.

As to A11U A12G G30C C46A, the self-cleavage turned out to be 0.06.

With C13U C23A G36U, the self-cleavage worked out at 0.09.

With G19C G21U G36U G44A C45A, the self-cleavage stood at 0.02.

In the case of G7U U9A G22A A26C, the self-cleavage is 0.06.

For U9G G19A G30C, the self-cleavage stood at 0.28.

Regarding C10A A14U U20C, the self-cleavage amounted to 0.01.

Consider G2A C3A G5A G36U A41C, for which the self-cleavage was 0.88.

For the variant C3G A4G G21U G27C, the self-cleavage is 0.04.

A14C U32A C46A: the self-cleavage came out at 0.03.

For the variant C3U A16C A26U, the self-cleavage stood at 0.01.

As to C10A A12U C18U, the self-cleavage was determined as 0.04.

On to U9G A39U C46U, for which the self-cleavage is 0.06.

With A6G C13G A14C A25G U28C G35C, the self-cleavage worked out at 0.

For G1C G7C C8A A25U A26G, the self-cleavage was 0.01.

As to U20A C23U C46A, the self-cleavage came to 0.92.

For A24U G36A A41C, the self-cleavage stood at 0.09.

Consider C3G C23A G29C C31A U38G C45U, for which the self-cleavage is 0.02.

Take C8U A24G C42U: the self-cleavage worked out at 0.25.

As for G5C U9A A11G C23A, the self-cleavage amounted to 0.01.

On to A14U C18G G35U, for which the self-cleavage was 0.03.

For the variant G1U C15A A26G G29U, the self-cleavage was 0.08.

On to A11U A12C A24U C31U C46G, for which the self-cleavage stood at 0.02.

For U9A G21C C23G A39U, the self-cleavage was 0.05.

As to C8A C10U G35U, the self-cleavage is 0.06.

On to A16G G17C G29A, for which the self-cleavage stood at 0.03.

For the variant G21U U38G C42G, the self-cleavage was determined as 0.

In the case of G2A A4U G27A, the self-cleavage came to 2.39.

With G7A G30A U38G, the self-cleavage turned out to be 0.02.

As for G36U U38C U43G C45G, the self-cleavage turned out to be 0.03.

Consider A4G C8A G21U C31U U38A, for which the self-cleavage is 0.01.

For the variant G7A G27C U34G, the self-cleavage stood at 0.07.

On to G2A A12G G33A A41C, for which the self-cleavage is 0.06.

On to G27U G35A C37A G40A U43A, for which the self-cleavage is 0.06.

As for C3G G21A A39U G44U, the self-cleavage was determined as 0.19.

Take G1U A11C A14U U20G U34G G40U U43A: the self-cleavage is 0.

With C3G C18A A24C U28G C31A G40U A41C, the self-cleavage came out at 0.03.

As for C18A G36U A39U, the self-cleavage worked out at 0.13.

On to C31A G36U U38A, for which the self-cleavage came out at 0.09.

Consider C3A A4U G33U, for which the self-cleavage is 0.13.

As to A6G G33C A41C, the self-cleavage came out at 0.05.

Take G2A C18U G19C C45G: the self-cleavage came out at 0.03.

Regarding G21U U32G G33A, the self-cleavage was determined as 0.11.

On to G1C A14G A25U, for which the self-cleavage amounted to 0.03.

In the case of G22C C23U G36C, the self-cleavage came out at 0.04.

With C3A A4G A11U G29C U32G G36U C37U C42A, the self-cleavage is 0.

G1C C10A C46U: the self-cleavage was 0.02.

Turning to G30U A39C A41G, the self-cleavage was 0.04.

Consider G2C C8G A11C C13A C18A C23A, for which the self-cleavage was determined as 0.02.

Regarding G1U U9A A12G C15A U32C C42A C46U, the self-cleavage is 0.02.

For U9A A16U U20G U32A G44C, the self-cleavage stood at 0.06.

A6G G40U G44C: the self-cleavage was determined as 0.01.

As for A6G C13U A16U G17C C23A G35C G36A C42U, the self-cleavage was found to be 0.08.

Take A14U C18G G21A: the self-cleavage is 0.08.

In the case of G1C C10G A41C G44U, the self-cleavage was 0.

Take A11C C18G G21C C31G G40U: the self-cleavage came out at 0.01.

Take C8U G27A G40U: the self-cleavage was 0.97.

On to C3U U9G U32A U43A G44A, for which the self-cleavage is 0.03.

For C3A C37G G40C, the self-cleavage is 0.11.

As for C10G A12U C45U, the self-cleavage worked out at 0.01.

On to G5U C18A U20A A41U C45A, for which the self-cleavage is 0.01.

G7C U28G C37U: the self-cleavage worked out at 0.03.

Source of the values: the RNAGym collection of RNA variant scans (doi:10.7554/elife.90254).
